Assay results: PMC11536954
No constants are given. Whether binding was seen depends on the method and setting. Binding seen in cells or lysates may run through a third protein. Some binding calls cover weakened binding; strength is not graded here. For some assays here: Sequences can lack the tags named with a protein.

The chains behind the UniProt entries cited, without tags or fusion partners.
UniProt P13010: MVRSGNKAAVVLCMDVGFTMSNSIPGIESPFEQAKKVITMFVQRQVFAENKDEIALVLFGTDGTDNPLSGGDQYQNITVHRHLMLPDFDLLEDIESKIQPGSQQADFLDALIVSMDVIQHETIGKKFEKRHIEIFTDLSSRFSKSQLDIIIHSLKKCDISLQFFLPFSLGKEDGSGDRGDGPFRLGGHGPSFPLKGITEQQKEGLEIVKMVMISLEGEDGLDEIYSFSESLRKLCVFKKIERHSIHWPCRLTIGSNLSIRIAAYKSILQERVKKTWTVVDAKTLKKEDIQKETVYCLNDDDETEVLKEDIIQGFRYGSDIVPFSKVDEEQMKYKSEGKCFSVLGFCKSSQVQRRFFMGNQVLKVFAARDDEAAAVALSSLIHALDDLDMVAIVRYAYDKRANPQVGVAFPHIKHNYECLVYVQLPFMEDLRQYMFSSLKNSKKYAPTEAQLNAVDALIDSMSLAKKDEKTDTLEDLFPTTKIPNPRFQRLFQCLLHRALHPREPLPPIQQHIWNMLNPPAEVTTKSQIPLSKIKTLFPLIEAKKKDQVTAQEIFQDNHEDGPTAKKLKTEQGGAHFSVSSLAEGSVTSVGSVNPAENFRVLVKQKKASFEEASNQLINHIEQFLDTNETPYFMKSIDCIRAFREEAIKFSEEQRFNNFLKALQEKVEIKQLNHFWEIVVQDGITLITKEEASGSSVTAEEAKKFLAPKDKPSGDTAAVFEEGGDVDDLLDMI
UniProt Q92878: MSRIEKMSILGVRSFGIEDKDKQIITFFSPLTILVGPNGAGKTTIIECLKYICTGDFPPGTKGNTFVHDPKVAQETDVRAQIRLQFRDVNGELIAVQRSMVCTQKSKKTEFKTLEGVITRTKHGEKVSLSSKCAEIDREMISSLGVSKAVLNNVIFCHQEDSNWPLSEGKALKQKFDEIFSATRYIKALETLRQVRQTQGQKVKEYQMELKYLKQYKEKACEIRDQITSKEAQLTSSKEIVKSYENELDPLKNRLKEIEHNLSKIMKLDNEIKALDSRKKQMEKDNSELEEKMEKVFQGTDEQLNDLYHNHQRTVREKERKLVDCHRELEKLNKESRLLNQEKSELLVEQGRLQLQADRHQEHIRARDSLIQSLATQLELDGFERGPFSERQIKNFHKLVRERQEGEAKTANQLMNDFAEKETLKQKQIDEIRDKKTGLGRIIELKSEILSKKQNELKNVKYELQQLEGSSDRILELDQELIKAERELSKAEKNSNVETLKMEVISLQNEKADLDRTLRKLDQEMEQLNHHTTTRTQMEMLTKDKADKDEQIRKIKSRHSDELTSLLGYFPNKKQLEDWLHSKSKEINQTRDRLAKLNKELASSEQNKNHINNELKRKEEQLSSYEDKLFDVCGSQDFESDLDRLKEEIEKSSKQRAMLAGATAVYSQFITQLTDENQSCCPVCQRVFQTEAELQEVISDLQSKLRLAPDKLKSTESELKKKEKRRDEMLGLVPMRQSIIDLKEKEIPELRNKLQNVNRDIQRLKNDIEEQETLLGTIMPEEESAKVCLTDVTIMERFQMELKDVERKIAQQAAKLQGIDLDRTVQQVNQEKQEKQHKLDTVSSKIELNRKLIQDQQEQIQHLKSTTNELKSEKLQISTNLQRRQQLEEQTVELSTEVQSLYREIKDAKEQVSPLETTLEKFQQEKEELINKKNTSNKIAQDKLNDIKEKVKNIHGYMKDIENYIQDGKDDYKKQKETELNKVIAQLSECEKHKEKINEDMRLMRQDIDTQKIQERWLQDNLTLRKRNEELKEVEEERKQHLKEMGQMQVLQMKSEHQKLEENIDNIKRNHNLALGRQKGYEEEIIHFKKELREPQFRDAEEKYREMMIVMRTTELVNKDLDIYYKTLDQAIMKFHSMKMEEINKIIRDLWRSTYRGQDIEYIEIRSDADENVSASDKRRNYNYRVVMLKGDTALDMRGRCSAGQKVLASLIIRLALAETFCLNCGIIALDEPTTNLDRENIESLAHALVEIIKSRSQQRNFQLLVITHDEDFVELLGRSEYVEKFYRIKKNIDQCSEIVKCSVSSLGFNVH
UniProt P78527: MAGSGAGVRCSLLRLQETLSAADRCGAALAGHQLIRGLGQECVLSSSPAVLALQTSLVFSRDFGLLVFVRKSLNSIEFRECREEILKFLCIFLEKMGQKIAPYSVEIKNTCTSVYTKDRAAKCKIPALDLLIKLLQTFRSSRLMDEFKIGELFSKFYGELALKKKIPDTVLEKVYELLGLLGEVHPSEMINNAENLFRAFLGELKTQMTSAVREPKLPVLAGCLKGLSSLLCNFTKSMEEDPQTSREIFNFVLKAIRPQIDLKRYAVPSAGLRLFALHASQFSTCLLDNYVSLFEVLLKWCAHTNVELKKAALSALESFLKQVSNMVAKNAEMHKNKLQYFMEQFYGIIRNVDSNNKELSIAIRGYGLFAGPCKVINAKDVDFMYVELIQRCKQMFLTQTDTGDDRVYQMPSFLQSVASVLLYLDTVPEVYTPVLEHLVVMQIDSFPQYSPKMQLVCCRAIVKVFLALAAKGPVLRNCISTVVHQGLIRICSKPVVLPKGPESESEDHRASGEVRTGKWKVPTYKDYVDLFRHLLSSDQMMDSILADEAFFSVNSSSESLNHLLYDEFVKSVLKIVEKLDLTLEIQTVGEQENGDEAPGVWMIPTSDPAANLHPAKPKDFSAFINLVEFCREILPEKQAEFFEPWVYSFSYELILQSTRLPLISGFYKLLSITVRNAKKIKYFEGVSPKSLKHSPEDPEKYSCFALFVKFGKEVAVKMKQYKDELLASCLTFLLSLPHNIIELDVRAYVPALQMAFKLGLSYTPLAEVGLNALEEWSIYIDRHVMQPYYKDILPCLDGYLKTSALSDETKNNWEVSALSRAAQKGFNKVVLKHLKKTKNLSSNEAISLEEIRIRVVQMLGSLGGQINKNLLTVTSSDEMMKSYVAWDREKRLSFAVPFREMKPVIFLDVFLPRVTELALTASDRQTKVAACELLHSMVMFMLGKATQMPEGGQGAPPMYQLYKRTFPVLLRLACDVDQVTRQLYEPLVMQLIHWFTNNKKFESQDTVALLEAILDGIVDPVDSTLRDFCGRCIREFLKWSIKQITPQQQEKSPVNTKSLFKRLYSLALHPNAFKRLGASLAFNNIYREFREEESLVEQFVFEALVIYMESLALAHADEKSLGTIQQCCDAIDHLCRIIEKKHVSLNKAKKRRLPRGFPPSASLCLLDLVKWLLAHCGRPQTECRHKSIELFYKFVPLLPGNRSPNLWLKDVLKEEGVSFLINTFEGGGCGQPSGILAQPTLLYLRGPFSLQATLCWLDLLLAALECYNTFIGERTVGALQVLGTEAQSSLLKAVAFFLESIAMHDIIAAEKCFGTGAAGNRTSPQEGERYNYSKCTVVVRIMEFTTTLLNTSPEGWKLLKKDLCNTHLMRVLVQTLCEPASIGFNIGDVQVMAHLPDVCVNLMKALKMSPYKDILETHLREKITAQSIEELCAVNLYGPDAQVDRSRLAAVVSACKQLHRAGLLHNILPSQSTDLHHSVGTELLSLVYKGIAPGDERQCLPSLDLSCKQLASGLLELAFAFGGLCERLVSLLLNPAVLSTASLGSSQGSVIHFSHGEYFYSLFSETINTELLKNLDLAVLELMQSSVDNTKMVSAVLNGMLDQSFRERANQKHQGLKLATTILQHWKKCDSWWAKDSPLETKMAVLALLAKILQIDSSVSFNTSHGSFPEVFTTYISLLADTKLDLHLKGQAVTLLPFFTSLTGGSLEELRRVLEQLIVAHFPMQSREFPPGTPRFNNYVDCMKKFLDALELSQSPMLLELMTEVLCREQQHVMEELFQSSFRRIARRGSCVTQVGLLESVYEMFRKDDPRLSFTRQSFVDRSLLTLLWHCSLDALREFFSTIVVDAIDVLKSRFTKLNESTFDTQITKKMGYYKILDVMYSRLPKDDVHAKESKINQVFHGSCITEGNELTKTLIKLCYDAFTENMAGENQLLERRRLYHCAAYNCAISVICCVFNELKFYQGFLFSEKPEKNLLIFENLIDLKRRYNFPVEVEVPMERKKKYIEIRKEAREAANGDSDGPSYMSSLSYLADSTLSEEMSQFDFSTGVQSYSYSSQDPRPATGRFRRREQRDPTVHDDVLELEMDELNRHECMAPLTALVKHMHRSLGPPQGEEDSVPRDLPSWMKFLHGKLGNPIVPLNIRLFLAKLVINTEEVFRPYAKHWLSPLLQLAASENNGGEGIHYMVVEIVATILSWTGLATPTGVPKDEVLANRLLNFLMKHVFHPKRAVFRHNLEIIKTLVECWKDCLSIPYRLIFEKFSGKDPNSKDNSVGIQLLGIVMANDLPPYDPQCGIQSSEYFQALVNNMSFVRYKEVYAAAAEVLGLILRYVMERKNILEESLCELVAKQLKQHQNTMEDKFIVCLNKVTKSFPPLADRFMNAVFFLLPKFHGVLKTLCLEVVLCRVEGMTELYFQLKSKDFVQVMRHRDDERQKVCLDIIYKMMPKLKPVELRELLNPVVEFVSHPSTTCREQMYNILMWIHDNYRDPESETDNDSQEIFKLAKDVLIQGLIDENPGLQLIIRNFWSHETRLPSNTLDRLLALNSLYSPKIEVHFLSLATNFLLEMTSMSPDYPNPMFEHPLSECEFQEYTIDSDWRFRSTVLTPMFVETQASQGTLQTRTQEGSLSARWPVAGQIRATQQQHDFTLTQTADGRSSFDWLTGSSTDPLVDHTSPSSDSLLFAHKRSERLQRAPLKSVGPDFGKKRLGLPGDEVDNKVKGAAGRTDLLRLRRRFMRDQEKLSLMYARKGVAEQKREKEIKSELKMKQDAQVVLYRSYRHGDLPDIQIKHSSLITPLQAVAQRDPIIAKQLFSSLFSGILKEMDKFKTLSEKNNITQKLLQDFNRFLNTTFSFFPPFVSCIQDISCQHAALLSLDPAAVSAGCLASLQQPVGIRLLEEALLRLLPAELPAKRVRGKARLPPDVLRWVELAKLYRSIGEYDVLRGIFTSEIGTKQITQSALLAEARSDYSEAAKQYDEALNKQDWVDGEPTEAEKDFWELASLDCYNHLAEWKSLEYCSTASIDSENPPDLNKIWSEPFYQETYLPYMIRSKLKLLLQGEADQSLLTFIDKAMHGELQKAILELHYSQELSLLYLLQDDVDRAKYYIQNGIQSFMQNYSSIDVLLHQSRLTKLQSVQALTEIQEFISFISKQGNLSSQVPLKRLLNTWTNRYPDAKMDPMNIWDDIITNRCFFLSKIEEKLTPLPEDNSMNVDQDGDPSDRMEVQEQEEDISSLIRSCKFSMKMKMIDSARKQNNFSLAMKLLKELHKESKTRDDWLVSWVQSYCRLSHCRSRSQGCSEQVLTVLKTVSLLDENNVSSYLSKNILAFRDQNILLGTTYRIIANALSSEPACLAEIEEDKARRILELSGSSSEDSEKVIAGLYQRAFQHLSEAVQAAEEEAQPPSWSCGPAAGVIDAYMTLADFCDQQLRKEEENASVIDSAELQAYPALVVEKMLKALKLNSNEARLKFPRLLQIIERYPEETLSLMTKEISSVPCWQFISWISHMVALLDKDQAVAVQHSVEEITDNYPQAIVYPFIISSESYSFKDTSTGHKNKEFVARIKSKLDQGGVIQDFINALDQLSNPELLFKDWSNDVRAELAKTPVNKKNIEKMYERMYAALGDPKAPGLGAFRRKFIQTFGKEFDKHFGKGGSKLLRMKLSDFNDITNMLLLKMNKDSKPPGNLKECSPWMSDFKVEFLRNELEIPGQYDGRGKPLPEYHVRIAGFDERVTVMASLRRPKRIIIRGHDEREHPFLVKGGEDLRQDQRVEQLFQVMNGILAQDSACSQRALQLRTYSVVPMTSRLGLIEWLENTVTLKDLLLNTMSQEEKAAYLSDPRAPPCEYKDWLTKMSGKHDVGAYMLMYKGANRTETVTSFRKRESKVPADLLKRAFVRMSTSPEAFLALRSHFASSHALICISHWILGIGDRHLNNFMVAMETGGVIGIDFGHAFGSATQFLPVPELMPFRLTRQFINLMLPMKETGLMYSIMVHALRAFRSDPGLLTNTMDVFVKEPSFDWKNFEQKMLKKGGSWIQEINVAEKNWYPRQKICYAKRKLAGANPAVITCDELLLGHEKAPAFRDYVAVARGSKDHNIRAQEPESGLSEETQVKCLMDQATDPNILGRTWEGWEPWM

Experiments:
[1] = target: T1, GFP-tagged PORCN-ΔNLS (UniProt Q9H237); assay: co-IP; HT1080 transiently transfected with GFP-tagged PORCN-WT or PORCN-ΔNLS, 48 h; whole cell lysates precipitated with anti-GFP antibody; blots for Ku70, Ku80, DNA-PKcs, Rad50
T1 sequence: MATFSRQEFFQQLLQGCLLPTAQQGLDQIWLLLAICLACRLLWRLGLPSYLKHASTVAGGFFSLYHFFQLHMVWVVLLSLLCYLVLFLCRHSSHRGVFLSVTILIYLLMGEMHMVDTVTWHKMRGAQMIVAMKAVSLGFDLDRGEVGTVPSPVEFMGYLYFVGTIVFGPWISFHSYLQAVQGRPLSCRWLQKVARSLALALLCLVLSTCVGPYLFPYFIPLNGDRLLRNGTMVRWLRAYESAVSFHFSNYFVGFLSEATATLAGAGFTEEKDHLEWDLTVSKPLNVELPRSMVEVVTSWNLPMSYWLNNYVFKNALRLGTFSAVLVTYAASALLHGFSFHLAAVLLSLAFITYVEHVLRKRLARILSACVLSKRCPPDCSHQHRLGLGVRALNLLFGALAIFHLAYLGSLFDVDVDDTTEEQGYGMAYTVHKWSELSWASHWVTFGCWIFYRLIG

[2] = target: T2, GFP-tagged PORCN-WT (Porcupine) (UniProt Q9H237); assay: as above
T2 sequence: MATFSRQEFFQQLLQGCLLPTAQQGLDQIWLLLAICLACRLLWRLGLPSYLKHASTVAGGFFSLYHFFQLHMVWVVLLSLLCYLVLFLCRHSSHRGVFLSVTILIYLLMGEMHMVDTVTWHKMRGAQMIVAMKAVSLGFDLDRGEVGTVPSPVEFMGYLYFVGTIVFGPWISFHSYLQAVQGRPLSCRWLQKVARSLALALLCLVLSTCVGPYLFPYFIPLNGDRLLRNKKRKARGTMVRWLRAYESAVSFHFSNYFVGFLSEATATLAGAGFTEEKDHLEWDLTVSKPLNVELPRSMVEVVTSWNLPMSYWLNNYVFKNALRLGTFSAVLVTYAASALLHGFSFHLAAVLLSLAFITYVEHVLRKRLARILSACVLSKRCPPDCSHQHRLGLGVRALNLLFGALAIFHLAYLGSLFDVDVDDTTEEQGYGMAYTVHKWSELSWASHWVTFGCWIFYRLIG

[3] = target: T3, endogenous PORCN ΔNLS of HT1080 NLS-KO cells (human (endogenous in HT1080)) (UniProt Q9H237); assay: co-IP; endogenous proteins, HT1080 PORCN-WT or NLS-KO cells; precipitated with anti-PORCN antibody (and, in turn, anti-Ku70, anti-Ku80 or anti-DNA-PKcs with a blot for PORCN)
T3 sequence: T1 sequence

[4] = target: T4, endogenous PORCN (Porcupine) of HT1080 PORCN-WT cells (human (endogenous in HT1080)) (UniProt Q9H237); assay: as above
T4 sequence: T2 sequence

binding [1] | binding [2] | binding [3] | binding [4] | Substance
no binding | binds | no binding | binds | Ku80 (XRCC5), endogenous (from UniProt P13010 1-732)
no binding | no binding | – | – | Rad50, endogenous (from UniProt Q92878 1-1312)
no binding | binds | no binding | binds | DNA-dependent protein kinase catalytic subunit (DNA-PKcs), endogenous (from UniProt P78527 1-4128) (enzyme)
no binding | binds | no binding | binds | Ku70 (XRCC6), endogenous (from UniProt P12956 1-609)
